Values joined by “and” are separate entries in the source; they are usually repeats but may differ in a detail not shown here. Identical values can stand only once. Out of some 54,000 compounds screened, about 120 (0.22%) were called active. Inconclusive results, whose numbers are uncertain, are shown with a selection of clear calls. Calls come from the whole dose curve; as a rule, active = well fitted inhibition curve with a large enough effect; inconclusive = small, poorly fitted or top-dose-only effect, or effect the other way; inactive = flat fitted curve, though single readings scatter. No potency is given beside an inconclusive call; the fits are too rough. More than one record can exist for a structure, and the calls need not agree.
molecular target: Fumarate hydratase, mitochondrial (Homo sapiens) (UniProt P07954); test: Identification of activators of human fumarate hydratase by quantitative high-throughput screening; details: FH coupled MDH/diaphorase resazurin fluorescence, 15 min; activity change, negative = inhibition: at 79.9 µM (top of the series); note: the screen sought activators but most active calls are inhibition curves; nearly all actives have a fitted effect of over 45% in size
UniProt P07954, sequence (P07954 whole entry, looked up): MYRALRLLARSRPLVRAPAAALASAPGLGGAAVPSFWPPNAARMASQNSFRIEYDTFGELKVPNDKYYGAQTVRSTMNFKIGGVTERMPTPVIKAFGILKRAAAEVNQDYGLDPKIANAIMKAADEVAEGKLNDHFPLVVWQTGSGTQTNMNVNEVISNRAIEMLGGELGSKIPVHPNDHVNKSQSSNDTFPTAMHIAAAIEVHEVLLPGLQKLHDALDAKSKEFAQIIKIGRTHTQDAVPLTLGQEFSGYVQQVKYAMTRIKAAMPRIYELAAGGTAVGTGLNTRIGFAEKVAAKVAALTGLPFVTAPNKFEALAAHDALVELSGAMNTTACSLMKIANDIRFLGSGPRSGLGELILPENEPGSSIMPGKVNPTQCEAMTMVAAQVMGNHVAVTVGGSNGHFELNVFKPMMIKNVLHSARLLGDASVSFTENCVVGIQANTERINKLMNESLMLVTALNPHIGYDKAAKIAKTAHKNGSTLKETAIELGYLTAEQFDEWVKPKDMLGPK
% is set by controls: 0 for no effect and ±100 for the full control effect; potency is the fitted concentration of half-maximal effect; tags give direction and shape of the fitted curve.

Row | SMILES | Potency | activity change, negative = inhibition
1 | CCOC(=O)c1ccc(CSc2nnc3cc(C)c4ccccc4n23)cc1 | inconclusive [inhibitor, single point] | –
2 | Cc1cccc(NC(=O)CSc2nc3ccc(NC(=O)c4cccs4)cc3s2)c1 | – | inactive: -0.675%
3 | COc1cc2nc(SCC(=O)Nc3ccc(F)cc3)n3nc(CCn4c(C)nc5ccccc54)nc3c2cc1OC | – | inactive: -11.8%
4 | COc1cc(O)cc(/C=C/c2cccc(O)c2)c1 | inconclusive [inhibitor, single point] | –
5 | Cc1ccc(C(C)C)c(OCCn2cc(C(=O)c3ccco3)c3ccccc32)c1 | inconclusive [inhibitor, single point] | –
6 | COc1ccc(NC(=O)c2ccco2)cc1NC(=O)COc1cc(C)cc(C)c1 | – | inactive: -0.424%
7 | COc1cc(CCNC(=O)c2ccc3c(c2)c(C)c(C)n3Cc2cccc(C)c2)cc(OC)c1OC | inconclusive [inhibitor, single point] | –
8 | CCOC(=O)C1CCN(C(=O)c2ccc(NC(=O)c3nsc4ccccc34)cc2)CC1 | inconclusive [inhibitor, partial curve, poor fit] | –
9 | CC(=O)c1ccc(Nc2ccc3cc(S(=O)(=O)N4CCCC4)ccc3n2)cc1 | inconclusive [inhibitor, partial curve, poor fit] | –
10 | CN(C)c1ccc(CNC(=O)c2ccc(NC(=O)N3CCCCc4ccccc43)cc2)cc1 | inconclusive [inhibitor, partial curve, poor fit] | –
11 | O=S(=O)(Nc1cc(F)ccc1F)c1ccc2[nH]c3c(c2c1)CCCCC3 | inconclusive [inhibitor, single point] | –
12 | CN(C)c1ccc(-c2nnc3n(Cc4ccccc4)c(=O)c4ccccc4n23)cc1 | inconclusive [inhibitor, single point] | –
13 | CC(C)c1ccc(NS(=O)(=O)c2ccc3[nH]cc(C(=O)NCC4CCCO4)c(=O)c3c2)cc1 (stereo not drawn) | inconclusive [inhibitor, full curve, poor fit] | –
14 | Cc1cc([N+](=O)[O-])ccc1NC(c1nnc(-c2ccccc2)o1)c1ccccc1F (stereo not drawn) | inconclusive [inhibitor, partial curve, poor fit] | –
15 | Fc1ccc(Nc2nc(SCc3ccccc3F)nc3ccccc23)cc1 | inconclusive [inhibitor, partial curve] | –
16 | CCOC(=O)c1cc2c(=O)n3ccccc3nc2n(Cc2ccco2)c1=NC(=O)c1cccc(F)c1 | inconclusive [inhibitor, single point] | –
17 | COc1cc(OC)c(C(=O)/C=C/c2ccccc2)c2c1C=CC(C)(C)O2 | – | inactive: -15.6%
18 | CCC1CCCCN1C(=O)CSc1nc(-c2ccc(OC)c(OC)c2)cc(C(F)(F)F)n1 (stereo not drawn) | inconclusive [inhibitor, partial curve] | –
19 | COCCCN1C(=O)c2[nH]nc(-c3ccccc3O)c2C1c1ccc(OCc2ccccc2)cc1 (stereo not drawn) | inconclusive [inhibitor, partial curve] | –
20 | Oc1ccc(-c2nc(-c3ccccc3)c(-c3ccc(Br)cc3)[nH]2)cc1 | inconclusive [inhibitor, single point] | –

Row | SMILES | Potency | activity change, negative = inhibition
21 | COc1ccccc1N1CCN(C(=O)CCn2nc(C)c(S(=O)(=O)N3CCCC3)c2C)CC1 | inconclusive [activator, single point] | –
22 | C[C@@H]1CN(Cc2ccc(F)cc2)[C@@H](C)CN1C(=O)c1cc2c(C(=O)C(=O)N(C)C)cn(C)c2cc1Cl | inconclusive [inhibitor, partial curve, poor fit] | –
23 | Cc1ccc(SCc2nc(-c3ccc(C(=O)Nc4cc(C)ccc4C)cc3)oc2C)cc1 | inconclusive [inhibitor, single point] | –
24 | COC1CC(O[C@H]2CC[C@@]3(C)C(=CC[C@]4(O)C3[C@H](O)[C@@H](O)[C@]3(C)[C@@H]([C@H](C)O)CC[C@@]34O)C2)OC(C)C1OC1CC(OC)C(OC2CC(OC)C(OC3OC(C)C(OC4OC(CO)C(O)C(O)C4O)C(OC)C3O)C(C)O2)C(C)O1 (stereo partly drawn) | – | inactive: 7.13% [at 20.6 µM]
25 | COc1cc(Cl)c(C)cc1NC(=O)CSc1nc2c(c(=O)[nH]1)CCCC2 | inconclusive [inhibitor, partial curve] | –
26 | CCOc1ccc(OCC)c(NC(=O)CCc2nc3cccnc3n2Cc2cccs2)c1 | inconclusive [inhibitor, partial curve, poor fit] | –
27 | COc1ccc(OC)c(NC(=O)CSC2=Nc3ccccc3C3=NC(CC(=O)NCc4ccc(F)cc4)C(=O)N23)c1 (stereo not drawn) | inconclusive [inhibitor, single point] | –
28 | O=S(=O)(c1ccc(-c2csc(=Nc3ccc(OC(F)(F)Cl)cc3)n2CCCO)cc1)N1CCCC1 | inconclusive [inhibitor, partial curve, poor fit] | –
29 | CC(C)(C(=O)NCC(F)(F)C(F)(F)F)C(=O)NC1C(=O)Nc2ccccc2-c2ccccc21 (stereo not drawn) | – | inactive: 1.83%
30 | COc1ccc2cc(CNc3ccc(OC)c(OC)c3)c(=O)n(CC(=O)Nc3ccccc3F)c2c1 | inconclusive [inhibitor, partial curve] | –
31 | CCC(CC)C(=O)OC12C(OC(=O)C(C)C)C(C)C3(O)C(C=C(CO)CC4(O)C(=O)C(C)=CC43)C1C2(C)C (stereo not drawn) | – | inactive: -6.04% [at 53.3 µM]
32 | COCCN(C)Cc1ccc2nc3sc(C(=O)N(C)C4CCCCC4)cn3c2c1 | inconclusive [activator, partial curve, poor fit] | –
33 | CCOc1ccccc1NC(=O)Nc1cc2c(cc1N1CCCCC1)n(CC)c(=O)n2CC | inconclusive [inhibitor, partial curve, poor fit] | –
34 | CCCn1ccc2c(OCC(=O)Nc3cc(C)ccc3C)cccc2c1=O | inconclusive [inhibitor, partial curve, poor fit] | –
35 | O=C(CC1(O)C(=O)N(CCc2ccccc2)c2ccc(Br)cc21)c1ccc(F)cc1 (stereo not drawn) | inconclusive [inhibitor, single point] | –
36 | Oc1cccc(-c2nc(N3CCOCC3)c3oc4ncccc4c3n2)c1 | inactive | –
37 | COc1cc2cc(CNc3ccccc3)c(=O)n(CC(=O)Nc3ccccc3)c2cc1OC | inconclusive [inhibitor, single point] | –
38 | CCc1ccccc1NC(=O)CSCc1cnn(-c2ccccc2)c1-n1cccc1 | inconclusive [inhibitor, partial curve, poor fit] | –
39 | O=C(NCCc1ccccc1Cl)c1ccc2c(c1)nc1n2CCOC1 | – | inactive: -24.1%
40 | N#CC(=C(\N)Sc1ccccc1N)/C(C#N)=C(/N)Sc1ccccc1N | inconclusive [inhibitor, single point] | –

Row | SMILES | Potency | activity change, negative = inhibition
41 | Cc1cc2c(C(C)C)c(O)c(O)c(C=O)c2c(O)c1-c1c(C)cc2c(C(C)C)c(O)c(O)c(C=O)c2c1O | inactive and active: 28.2 µM | –
42 | CC1=CC[C@@]2(C)CC[C@@](O)(C(C)C)[C@@H]2[C@@H](O)C1 | – | inactive: -5.49%
43 | C=C1c2cccc(O)c2C(O)=C2C(=O)[C@@]3(O)C(O)=C(C(N)=O)C(=O)[C@@H](N(C)C)[C@@H]3[C@@H](O)[C@H]12 | – | inactive: -9.91% [at 53.3 µM]
44 | O=C(Cn1c(=O)n(Cc2cccs2)c(=O)c2cccnc21)Nc1ccc(F)cc1 | – | inactive: -20.5%
45 | COc1ccc(-c2nn3c(=O)cc(CN4CCN(C(=O)c5ccc(OC)c(OC)c5)CC4)nc3s2)cc1 | inconclusive [activator, partial curve, poor fit] | –
46 | CC(=O)N1CCc2nc3sc(C(=O)c4ccc(F)cc4)c(N)c3c(C(F)(F)F)c2C1 | inconclusive [inhibitor, single point] | –
47 | CC12CCC3C1C(c1c(cc(O)c(C(=O)c4ccccc4)c1O)O2)C3(C)C (stereo not drawn) | – | inactive: -24.3% [at 53.3 µM]
48 | O=C1CC(c2nc(-c3ccc(Cl)cc3)no2)CN1c1ccc2c(c1)OCCO2 (stereo not drawn) | inconclusive [inhibitor, partial curve, poor fit] | –
49 | Cc1csc(NC(=O)c2sc3nc4c(c(C(F)(F)F)c3c2N)CCC4)n1 | inactive | –
50 | CCCN(CCC)CCCNC(=O)c1cc2c(-c3ccc(OC)c(OC)c3)nn(C)c2s1 | inconclusive [inhibitor, single point] | –
51 | Nc1ncnc2c1c(COc1cccc(Cl)c1)nn2C1CCOCC1 | – | inactive: -0.784%
52 | CN1CCc2c(sc(NC(=O)CSc3ccccc3)c2-c2nc3ccccc3s2)C1 | – | inactive: -21%
53 | COc1cc(NC(=O)N2c3ccccc3Sc3ccccc32)cc(OC)c1 | inconclusive [inhibitor, single point] | –
54 | CN[C@@H](C)C(=O)N[C@H]1CCCC[C@H]2CC[C@@H](C(=O)N[C@@H](c3ccccc3)c3cn(CCCCc4ccc(CCCCn5cc([C@@H](NC(=O)[C@@H]6CC[C@@H]7CCCC[C@H](NC(=O)[C@H](C)NC)C(=O)N76)c6ccccc6)nn5)cc4)nn3)N2C1=O | – | inactive: -7.77% [at 53.3 µM]
55 | O=C(Nc1ccccc1F)c1ccc2c(Cl)c3c(nc2c1)CCC3 | inconclusive [inhibitor, partial curve, poor fit] | –
56 | COc1ccc(-n2ncc3c(NC4CCCC4)ncnc32)cc1 | – | inactive: -26.5%
57 | COc1ccc(-c2nc(SCC(=O)Nc3ccc4c(c3)OCCO4)c(-c3ccc(C)cc3)[nH]2)cc1OC | inconclusive [inhibitor, single point] | –
58 | COc1ccc(CCN2C(=O)c3[nH]nc(-c4ccccc4O)c3C2c2ccc(OC)cc2)cc1 (stereo not drawn) | inconclusive [inhibitor, partial curve, poor fit] | –

Reference: PubChem BioAssay AID1347055 (National Center for Advancing Translational Sciences (NCATS), 2019)
